In the supplement of paper PMC9446081:
Among all 39,000 compounds or so, about 220 (0.56%) showed activity. Some of the results follow.
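Further: static incubation at 37 °C against the wild-type strain, values averaged over two biological replicates.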

The molecules below were run on Escherichia coli K-12 BW25113 (assay: relative growth (OD600 normalised to plate interquartile mean) (fraction); higher = less growth inhibition, active = 0.2 or less). Conditions: 50 µM; LB; incubation time: overnight (16-24 h).
In the case of `O=C(C[C@@H]1CC[C@@H]2[C@H](COC[C@@H](O)CN2S(=O)(=O)c2ccccc2F)O1)N1CCC(Cc2ccccc2)CC1`, the relative growth is reported as inactive: 0.913.
`O=C(N[C@@H]1CC=CC[C@H](CC(=O)N(CCO)Cc2ccccc2)C(=O)N[C@@H](Cc2ccccc2)COC1=O)OCC1c2ccccc2-c2ccccc21` was tested, and the relative growth was inactive: 0.982.
For `O[C@H]1CCCC[C@@H]1O`, the relative growth was inactive: 1.03.
`COCc1cn(CC[C@@H]2CC[C@H](NC(=O)CCN3CCCCC3)[C@@H](CO)O2)nn1` was tested, and the relative growth was inactive: 1.
For `C[C@@H]1CCCCO[C@H](CN(C)Cc2ccc(C(F)(F)F)cc2)[C@H](C)CN([C@H](C)CO)C(=O)c2cc(NC(=O)Nc3ccc4c(c3)OCO4)ccc2O1`, the relative growth was inactive: 1.02.
For `Cc1nnsc1C(=O)NCC1(CO)CC1`, the relative growth was inactive: 1.02.
For `COc1ccccc1CNC(=O)C[C@@H]1C[C@@H]2c3cc(NC(=O)C4CCOCC4)ccc3O[C@@H]2[C@H](CO)O1`, the relative growth was inactive: 1.01.
`C[C@@H]1CN([C@@H](C)CO)C(=O)c2c(c3ccccc3n2C)-c2ccccc2CO[C@@H]1CN(C)Cc1ccc(C(=O)O)cc1` was tested, and the relative growth was inactive: 1.02.
`O=C(NCCN1CCN(c2ccccc2F)CC1)[C@H]1CCCN(S(=O)(=O)c2c[nH]cn2)C1` was tested, and the relative growth was inactive: 0.979.
With `Cc1ccc(S(=O)(=O)N(C)C[C@H]2Oc3ccc(NS(C)(=O)=O)cc3CC(=O)N([C@H](C)CO)C[C@H]2C)cc1` the relative growth was inactive: 0.939.
With `COc1ccc(NC(=O)N(C)C[C@@H]2OCCCC[C@H](C)Oc3ccc(NC(=O)c4ccccc4)cc3C(=O)N([C@@H](C)CO)C[C@@H]2C)cc1` the relative growth was inactive: 1.02.
In the case of `C[C@@H]1CCCCO[C@@H](CN(C)C(=O)Cc2ccccc2)[C@H](C)CN([C@@H](C)CO)C(=O)c2cc(NC(=O)Nc3ccc(F)cc3)ccc2O1`, the relative growth is reported as inactive: 1.03.
In the case of `O=C(C[C@@H]1CC[C@H]2[C@@H](COC[C@@H](O)CN2C(=O)Nc2ccc(Cl)cc2)O1)NC1Cc2ccccc2C1`, the relative growth is reported as inactive: 0.952.
With `COc1ccc(NC(=O)Nc2ccc3c(c2)C(=O)N([C@@H](C)CO)C[C@@H](C)[C@H](CN(C)C(=O)C2CCCCC2)OCCCC[C@H](C)O3)cc1` the relative growth was inactive: 1.04.
With `COc1cccc(C(=O)Nc2ccc3c(c2)C(=O)N(C)[C@@H]2CC[C@H](CC(=O)NCC4CC4)O[C@@H]2CO3)c1` the relative growth was inactive: 1.03.
For `CCCNC(=O)C[C@H]1CC[C@@H]2[C@@H](COc3ccc(NS(=O)(=O)c4ccccc4C)cc3C(=O)N2C)O1`, the relative growth was inactive: 0.989.
With `COc1ccc(NC(=O)Nc2ccc3c(c2)C(=O)N([C@H](C)CO)C[C@@H](C)[C@H](CN(C)Cc2ccc(C(F)(F)F)cc2)OCCCC[C@H](C)O3)cc1` the relative growth was inactive: 0.925.
For `COC(=O)C1=C(N)N(c2cccc(C(F)(F)F)c2)C2=C(C(=O)CC(C)(C)C2)[C@@H]1c1ccc(OC)cc1`, the relative growth was inactive: 1.06.
With `C[C@@H]1CCCCO[C@@H](CN(C)C(=O)NC2CCCCC2)[C@@H](C)CN([C@@H](C)CO)C(=O)c2cc(NC(=O)Nc3ccccc3)ccc2O1` the relative growth was inactive: 0.985.
`Cc1noc(C)c1NC(=O)Nc1ccc2c(c1)C(=O)N([C@H](C)CO)C[C@H](C)[C@H](CN(C)C(=O)NC1CCCCC1)OCCCC[C@H](C)O2` was tested, and the relative growth was inactive: 0.995.
`C[C@H](CO)N1C[C@H](C)[C@H](CN(C)C(=O)Nc2cccc3ccccc23)Oc2ncc(-c3cccc(F)c3)cc2C1=O` was tested, and the relative growth was inactive: 1.01.
In the case of `O=C(O)c1cc2ncc(CCO)cn2n1`, the relative growth is reported as inactive: 1.03.
In the case of `Cc1cc(C(=O)Nc2cccc3c2O[C@H](CN(C)S(=O)(=O)c2cn(C)cn2)[C@@H](C)CN([C@@H](C)CO)C3=O)n(C)n1`, the relative growth is reported as inactive: 0.961.
With `COc1ccc(NC(=O)N(C)C[C@@H]2OCCCC[C@H](C)Oc3ccc(NC(=O)Nc4ccc5c(c4)OCO5)cc3C(=O)N([C@H](C)CO)C[C@@H]2C)cc1` the relative growth was inactive: 1.07.
For `Cc1ccccc1-c1ccc(N)cc1`, the relative growth was inactive: 0.974.
In the case of `C[C@H](CO)N1C[C@H](C)[C@H](CN(C)Cc2ccc(-c3ccccc3)cc2)Oc2ccc(NC(=O)Nc3ccc(C(F)(F)F)cc3)cc2CC1=O`, the relative growth is reported as inactive: 1.02.
For `C[C@H](CO)N1C[C@H](C)[C@@H](CN(C)S(=O)(=O)c2ccccc2)Oc2ccc(NS(=O)(=O)c3ccccc3)cc2C1=O`, the relative growth was inactive: 1.01.
For `C[C@@H]1CN([C@H](C)CO)C(=O)c2cc(C#Cc3ccccc3F)cnc2O[C@H]1CN(C)C(=O)C1CCOCC1`, the relative growth was inactive: 1.02.
`Cc1noc(C)c1NC(=O)N(C)C[C@@H]1OCCCC[C@H](C)Oc2ccc(NC(=O)Nc3cccc4ccccc34)cc2C(=O)N([C@@H](C)CO)C[C@H]1C` was tested, and the relative growth was inactive: 1.01.
For `Cc1ccc(S(=O)(=O)N2C[C@H](O)COC[C@H]3O[C@H](CC(=O)NCCN4CCCCC4)CC[C@@H]32)cc1`, the relative growth was inactive: 1.01.
For `C[C@@H]1CN([C@H](C)CO)C(=O)Cc2cc(NC(=O)CCCN(C)C)ccc2O[C@@H]1CN(C)S(=O)(=O)c1ccc(Cl)cc1`, the relative growth was inactive: 0.973.
In the case of `COc1ccc(NC(=O)Nc2ccc3c(c2)C(=O)N([C@@H](C)CO)C[C@H](C)[C@@H](CN(C)Cc2ccc(Cl)c(Cl)c2)OCCCC[C@H](C)O3)cc1`, the relative growth is reported as inactive: 0.984.
For `CCCNC(=O)N(C)C[C@@H]1Oc2cc(-c3ccccc3F)ccc2S(=O)(=O)N([C@H](C)CO)C[C@@H]1C`, the relative growth was inactive: 0.988.
`Cc1c[nH]cnc1=O` was tested, and the relative growth was inactive: 1.01.
For `CN1C=C(C(=O)OCCS(C)(=O)=O)C(C(=O)OCCS(C)(=O)=O)=CC(CCCO)=C[C@@H]1C1CC1`, the relative growth was inactive: 1.04.
With `Cc1ccc(S(=O)(=O)Nc2cccc3c2O[C@H](CN(C)S(=O)(=O)c2ccc(F)cc2)[C@@H](C)CN([C@@H](C)CO)C3=O)cc1` the relative growth was inactive: 1.
In the case of `COC(=O)c1ccc(Cn2cc(C(=O)NO)nn2)o1`, the relative growth is reported as inactive: 0.974.
`Cc1ccc(S(=O)(=O)Nc2cccc3c2O[C@@H](CN(C)S(=O)(=O)c2cn(C)cn2)[C@@H](C)CN([C@@H](C)CO)C3=O)cc1` was tested, and the relative growth was inactive: 1.06.
For `CC(C)(Oc1ccc(Cl)cc1)C(=O)O`, the relative growth was inactive: 0.993.
With `Nc1nc(C(F)(F)F)ncc1C(=O)O` the relative growth was inactive: 1.04.
In the case of `COc1ccc(NC(=O)N(C)C[C@@H]2OCCCC[C@@H](C)Oc3ccc(NS(=O)(=O)c4ccc(Cl)cc4)cc3C(=O)N([C@@H](C)CO)C[C@@H]2C)cc1`, the relative growth is reported as inactive: 0.993.
`COc1ccc(S(=O)(=O)N(C)C[C@@H]2Oc3c(NS(=O)(=O)c4ccccc4)cccc3C(=O)N([C@H](C)CO)C[C@@H]2C)cc1` was tested, and the relative growth was inactive: 1.01.
In the case of `C[C@H](CO)N1C[C@H](C)[C@H](CN(C)Cc2ccc(-c3ccccc3)cc2)Oc2ccc(NS(=O)(=O)c3ccc(F)cc3)cc2CC1=O`, the relative growth is reported as inactive: 1.01.
`O=C1NCCc2cncn21` was tested, and the relative growth was inactive: 1.03.
In the case of `COCC(=O)N1C[C@@H](C)[C@H](OC)CN(C)C(=O)c2cc(NC(=O)Nc3cccc(F)c3)ccc2OC[C@H]1C`, the relative growth is reported as inactive: 1.01.
`O=C(O)C[C@@H](O)C(=O)O` was tested, and the relative growth was inactive: 1.03.
For `C[C@@H]1CN([C@@H](C)CO)C(=O)Cc2cc(NC(=O)Cn3cnnn3)ccc2O[C@H]1CN(C)C(=O)Nc1cccc2ccccc12`, the relative growth was inactive: 0.993.
`Nc1nc(F)nc2c1ncn2[C@@H]1O[C@H](COP(=O)(O)O)[C@@H](O)[C@@H]1O` was tested, and the relative growth was inactive: 0.329.
With `COc1ccc(S(=O)(=O)Nc2ccc3c(c2)C(=O)N([C@H](C)CO)C[C@@H](C)[C@@H](CN(C)Cc2ccncc2)O3)cc1` the relative growth was inactive: 1.
With `O=C(C[C@H]1CC[C@H]2[C@@H](COC[C@H](O)CN2C(=O)c2ccccc2)O1)N1CCOCC1` the relative growth was inactive: 1.05.
With `Cc1ccc2sc(N(CCCN(C)C)C(=O)c3ccc(S(=O)(=O)N(C)C4CCCCC4)cc3)nc2c1C` the relative growth was inactive: 1.1.
With `C[C@H](CO)N1C[C@H](C)[C@@H](CN(C)Cc2ccc(Cl)c(Cl)c2)Oc2ccc(NC(=O)Cn3cnnn3)cc2C1=O` the relative growth was inactive: 1.
With `C[C@@H]1CN([C@@H](C)CO)C(=O)c2cccc(NC(=O)Nc3ccccc3)c2O[C@H]1CN(C)Cc1ccc(C(F)(F)F)cc1` the relative growth was inactive: 0.822.
`CN1CCN(CC#N)C(=O)C12CCN(C(=O)c1cnccn1)CC2` was tested, and the relative growth was inactive: 1.02.
In the case of `O=C(NCCCN1CCOCC1)[C@H]1[C@H](CO)[C@H]2Cn3c(cccc3=O)[C@@H]1N2C(=O)C1CCCCC1`, the relative growth is reported as inactive: 0.97.
For `C[C@H](CO)N1C[C@H](C)[C@H](CN(C)Cc2ccc3c(c2)OCO3)Oc2c(NC(=O)C3CCOCC3)cccc2C1=O`, the relative growth was inactive: 0.997.
`C[C@H](CO)N1C[C@H](C)[C@@H](CN(C)Cc2ccc(-c3ccccc3)cc2)Oc2ccc(NC(=O)Nc3ccc4c(c3)OCO4)cc2CC1=O` was tested, and the relative growth was inactive: 0.999.
With `C[C@H](CO)N1C[C@H](C)[C@H](CN(C)Cc2cncnc2)Oc2cc(-c3ccccc3F)ccc2S1(=O)=O` the relative growth was inactive: 0.975.
`CC(C)NC(=O)N(C)C[C@@H]1OCc2cn(nn2)CCCC(=O)N([C@H](C)CO)C[C@@H]1C` was tested, and the relative growth was inactive: 1.01.
With `CC(N)(Cc1ccc(O)c(O)c1)C(=O)O` (stereo not drawn) the relative growth was inactive: 1.11.
For `Cn1c(CC#N)n[nH]c1=S`, the relative growth was inactive: 1.01.
In the case of `Cc1ccc(S(=O)(=O)N(C)C[C@H]2Oc3ccc(NS(=O)(=O)c4ccccc4)cc3C(=O)N([C@H](C)CO)C[C@H]2C)cc1`, the relative growth is reported as inactive: 1.01.
In the case of `C=CCOC(=O)[C@@H]1[C@H]2C(=O)O[C@H](c3ccccc3)[C@H](c3ccccc3)N2[C@H](c2ccc(OCCOC(=O)[C@H]3C[C@H]4C(=O)NCC(=O)N4[C@H]3c3ccc(O)cc3)cc2)[C@@]12C(=O)Nc1ccc(I)cc12`, the relative growth is reported as inactive: 1.08.
